Residue numbers refer to the chain shown, from its start.
B1: SEQ ID NO 940: fusion protein having cucurbitadienol synthase activity (protein)
chain: MWNKTKKTQGSAAPGSGSGSGMWRLKVGKESVGEKEEKWIKSISNHLGRQVWEFCSGENENDDDEAIAVANNSASKFENARNHFRNNRFHRKQSSDLFLAIQCEKEIIRNGAKNEGTTKVKEGEDVKKEAVKNTLERALSFYSAVQTSDGNWASDLGGPMFLLPGLVIALYVTGVLNSVLSKHHRQEMCRYIYNHQNEDGGWGLHIEGSSTMFGSALNYVALRLLGEAADGGEHGAMTKARSWILERGGATAITSWGKLWLSVLGVYEWSGNNPLPPEFWLLPYSLPFHPGRMWCHCRMVYLPMSYLYGKRFVGPITPIVLSLRKELYTIPYHEIDWNRSRNTCAKEDLYYPHPKMQDILWGSIYHVYEPLFSGWPGKRLREKAMKIAMEHIHYEDENSRYICLGPVNKVLNMLCCWVEDPYSDAFKFHLQRIPDYLWLAEDGMRMQGYNGSQLWDTAFSIQAIISTKLIDTFGPTLRKAHHFVKHSQIQEDCPGDPNVWFRHIHKGAWPFSTRDHGWLISDCTAEGLKASLMLSKLPSKIVGEPLEKNRLCDAVNVLLSLQNENGGFASYELTRSYPWLELINPAETFGDIVIDYSYVECTSATMEALALFKKLHPGHRTKEIDAAIAKAANFLENMQKTDGSWYGCWGVCFTYAGWFGIKGLVAAGRTYNNCVAIRKACNFLLSKELPGGGWGESYLSCQNKVYTNLEGNKPHLVNTAWVMMALIEAGQGERDPAPLHRAARLLINSQLESGDFPQQEIMGVFNKNCMITYAAYRNIFPIWALGEYSHRVLDM
modifications: SS3b-C1 Full Gene AA seq
B2: SEQ ID NO 944: fusion protein having cucurbitadienol synthase activity (protein)
chain: MAKEDTVKLKRGSAAPGSGSGSGMWRLKVGKESVGEKEEKWIKSISNHLGRQVWEFCSGENENDDDEAIAVANNSASKFENARNHFRNNRFHRKQSSDLFLAIQCEKEIIRNGAKNEGTTKVKEGEDVKKEAVKNTLERALSFYSAVQTSDGNWASDLGGPMFLLPGLVIALYVTGVLNSVLSKHHRQEMCRYIYNHQNEDGGWGLHIEGSSTMFGSALNYVALRLLGEAADGGEHGAMTKARSWILERGGATAITSWGKLWLSVLGVYEWSGNNPLPPEFWLLPYSLPFHPGRMWCHCRMVYLPMSYLYGKRFVGPITPIVLSLRKELYTIPYHEIDWNRSRNTCAKEDLYYPHPKMQDILWGSIYHVYEPLFSGWPGKRLREKAMKIAMEHIHYEDENSRYICLGPVNKVLNMLCCWVEDPYSDAFKFHLQRIPDYLWLAEDGMRMQGYNGSQLWDTAFSIQAIISTKLIDTFGPTLRKAHHFVKHSQIQEDCPGDPNVWFRHIHKGAWPFSTRDHGWLISDCTAEGLKASLMLSKLPSKIVGEPLEKNRLCDAVNVLLSLQNENGGFASYELTRSYPWLELINPAETFGDIVIDYSYVECTSATMEALALFKKLHPGHRTKEIDAAIAKAANFLENMQKTDGSWYGCWGVCFTYAGWFGIKGLVAAGRTYNNCVAIRKACNFLLSKELPGGGWGESYLSCQNKVYTNLEGNKPHLVNTAWVMMALIEAGQGERDPAPLHRAARLLINSQLESGDFPQQEIMGVFNKNCMITYAAYRNIFPIWALGEYSHRVLDM
modifications: SS3b-B10 Full Gene AA seq
B3: SEQ ID NO 948: fusion protein having cucurbitadienol synthase activity (protein)
chain: MSFQIETVRTGSAAPGSGSGSGMWRLKVGKESVGEKEEKWIKSISNHLGRQVWEFCSGENENDDDEAIAVANNSASKFENARNHFRNNRFHRKQSSDLFLAIQCEKEIIRNGAKNEGTTKVKEGEDVKKEAVKNTLERALSFYSAVQTSDGNWASDLGGPMFLLPGLVIALYVTGVLNSVLSKHHRQEMCRYIYNHQNEDGGWGLHIEGSSTMFGSALNYVALRLLGEAADGGEHGAMTKARSWILERGGATAITSWGKLWLSVLGVYEWSGNNPLPPEFWLLPYSLPFHPGRMWCHCRMVYLPMSYLYGKRFVGPITPIVLSLRKELYTIPYHEIDWNRSRNTCAKEDLYYPHPKMQDILWGSIYHVYEPLFSGWPGKRLREKAMKIAMEHIHYEDENSRYICLGPVNKVLNMLCCWVEDPYSDAFKFHLQRIPDYLWLAEDGMRMQGYNGSQLWDTAFSIQAIISTKLIDTFGPTLRKAHHFVKHSQIQEDCPGDPNVWFRHIHKGAWPFSTRDHGWLISDCTAEGLKASLMLSKLPSKIVGEPLEKNRLCDAVNVLLSLQNENGGFASYELTRSYPWLELINPAETFGDIVIDYSYVECTSATMEALALFKKLHPGHRTKEIDAAIAKAANFLENMQKTDGSWYGCWGVCFTYAGWFGIKGLVAAGRTYNNCVAIRKACNFLLSKELPGGGWGESYLSCQNKVYTNLEGNKPHLVNTAWVMMALIEAGQGERDPAPLHRAARLLINSQLESGDFPQQEIMGVFNKNCMITYAAYRNIFPIWALGEYSHRVLDM
modifications: SS3a-D8Full Gene AA seq
B4: SEQ ID NO 952: fusion protein having cucurbitadienol synthase activity (protein)
chain: MTGLNGDADSDLLGSAAPGSGSGSGMWRLKVGKESVGEKEEKWIKSISNHLGRQVWEFCSGENENDDDEAIAVANNSASKFENARNHFRNNRFHRKQSSDLFLAIQCEKEIIRNGAKNEGTTKVKEGEDVKKEAVKNTLERALSFYSAVQTSDGNWASDLGGPMFLLPGLVIALYVTGVLNSVLSKHHRQEMCRYIYNHQNEDGGWGLHIEGSSTMFGSALNYVALRLLGEAADGGEHGAMTKARSWILERGGATAITSWGKLWLSVLGVYEWSGNNPLPPEFWLLPYSLPFHPGRMWCHCRMVYLPMSYLYGKRFVGPITPIVLSLRKELYTIPYHEIDWNRSRNTCAKEDLYYPHPKMQDILWGSIYHVYEPLFSGWPGKRLREKAMKIAMEHIHYEDENSRYICLGPVNKVLNMLCCWVEDPYSDAFKFHLQRIPDYLWLAEDGMRMQGYNGSQLWDTAFSIQAIISTKLIDTFGPTLRKAHHFVKHSQIQEDCPGDPNVWFRHIHKGAWPFSTRDHGWLISDCTAEGLKASLMLSKLPSKIVGEPLEKNRLCDAVNVLLSLQNENGGFASYELTRSYPWLELINPAETFGDIVIDYSYVECTSATMEALALFKKLHPGHRTKEIDAAIAKAANFLENMQKTDGSWYGCWGVCFTYAGWFGIKGLVAAGRTYNNCVAIRKACNFLLSKELPGGGWGESYLSCQNKVYTNLEGNKPHLVNTAWVMMALIEAGQGERDPAPLHRAARLLINSQLESGDFPQQEIMGVFNKNCMITYAAYRNIFPIWALGEYSHRVLDM
modifications: SS3a-A2 Full Gene AA seq
B5: SEQ ID NO 956: fusion protein having cucurbitadienol synthase activity (protein)
chain: B2 chain with K3S, E4N, D5Q, T6L, V7E, K8P, K10Q, R11T
modifications: SS3f-A8 Full Gene AA seq

Test system: cucurbitadienol synthase activity
Test: Cucurbitadienol synthase activities of fusion proteins in yeast strain with oxidosqualene boost, LCMS
Format: cell-based, S. cerevisiae
Conditions: average % activities over the average activities of the parent enzyme (Cucumis melo cucurbitadienol synthase)
Experimental: For analyzing cucurbitadienol, the first LCMS method included the use of C4 2.1×100 mm column, gradient 1 to 95% B for 6 minutes, and at flow rate of 0.55 ml/min; and the second LCMS method included the use of Waters Acquity UPLC Protein BEH C4 2.1×100 […], 1.7 μm, with guard, 62 to 67% B for 2 min, 100% B for 1 min, and at flow rate of 0.9 ml/min and ESI source positive single ion monitoring of 427 and 409.
The gene encoding for a cucurbitadienol synthase form Cucumis melo was codon optimized (SEQ ID: 907) and used as a starting point for generating a library of modifications. Modifications were introduced through standard molecular biology techniques consisting of fusion peptides at the N-terminus (i.e., 5′) or C-terminus (i.e., 3′) end of the enzyme. Plasmids libraries of modified cucurbitadienol synthase genes were transformed into a yeast strain with oxidosqualene boost. Enzyme activities were measured by ratios of peak heights or areas of 409 and 427 positive mass fragments at the expected retention times for cucurbitadienol vs. an internal standard using LCMS method 2 described above. Enzyme performance were scored as average % activities over the average activities of the parent enzyme (n=8). Step 1 sequences of the enzymes and the sequences that encode the enzyme can be found in SEQ ID NOs: 951-1012. Step 1 sequence also include the fusions SS2c-G10, SS2e-A7b, SS2d-G11. SS2e-A7a, SS4d-G5, SS4d-C7, SS3b-D8, and SS2c-A10a are disclosed herein.
A collection or library of S. cerevisiae in-frame fusion polynucleotdies for a cucurbitadienol synthase gene (DNA coding sequence provided in SEQ ID NO: 907, and protein sequence provided in SEQ ID NO: 902) was prepared. The in-frame fusion polynucleotides were cloned into a yeast vector molecule to generate fusion proteins.
Various fusion proteins were generated and tested for cucurbitadienol synthase activities.

Molecule	Activity (as compared to the parent)
B1	109%
B2	107%
B3	102%
B4	90%
B5	85%

From patent publication US12286661B2, “Methods for making high intensity sweeteners” (Firmenich Incorporated, priority 2018, dated 2025)
